Test results as given in PMC4336329 (PLoS ONE, 2015).
Screen size: about 310,000 compounds; about 14,000 (4.5%) showed an effect of 50% or more. Effects have a minus sign here. This is one part of the list.

These compounds were tested against human ether-à-go-go-related gene (hERG) potassium channel (human, UniProt Q12809) (assay: primary screen, population patch clamp on CHO cells stably expressing hERG).
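Note: peak tail current of the secondary pulse compared with the same well before compound.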

Sequence of human ether-à-go-go-related gene (hERG) potassium channel (Q12809 whole entry, looked up): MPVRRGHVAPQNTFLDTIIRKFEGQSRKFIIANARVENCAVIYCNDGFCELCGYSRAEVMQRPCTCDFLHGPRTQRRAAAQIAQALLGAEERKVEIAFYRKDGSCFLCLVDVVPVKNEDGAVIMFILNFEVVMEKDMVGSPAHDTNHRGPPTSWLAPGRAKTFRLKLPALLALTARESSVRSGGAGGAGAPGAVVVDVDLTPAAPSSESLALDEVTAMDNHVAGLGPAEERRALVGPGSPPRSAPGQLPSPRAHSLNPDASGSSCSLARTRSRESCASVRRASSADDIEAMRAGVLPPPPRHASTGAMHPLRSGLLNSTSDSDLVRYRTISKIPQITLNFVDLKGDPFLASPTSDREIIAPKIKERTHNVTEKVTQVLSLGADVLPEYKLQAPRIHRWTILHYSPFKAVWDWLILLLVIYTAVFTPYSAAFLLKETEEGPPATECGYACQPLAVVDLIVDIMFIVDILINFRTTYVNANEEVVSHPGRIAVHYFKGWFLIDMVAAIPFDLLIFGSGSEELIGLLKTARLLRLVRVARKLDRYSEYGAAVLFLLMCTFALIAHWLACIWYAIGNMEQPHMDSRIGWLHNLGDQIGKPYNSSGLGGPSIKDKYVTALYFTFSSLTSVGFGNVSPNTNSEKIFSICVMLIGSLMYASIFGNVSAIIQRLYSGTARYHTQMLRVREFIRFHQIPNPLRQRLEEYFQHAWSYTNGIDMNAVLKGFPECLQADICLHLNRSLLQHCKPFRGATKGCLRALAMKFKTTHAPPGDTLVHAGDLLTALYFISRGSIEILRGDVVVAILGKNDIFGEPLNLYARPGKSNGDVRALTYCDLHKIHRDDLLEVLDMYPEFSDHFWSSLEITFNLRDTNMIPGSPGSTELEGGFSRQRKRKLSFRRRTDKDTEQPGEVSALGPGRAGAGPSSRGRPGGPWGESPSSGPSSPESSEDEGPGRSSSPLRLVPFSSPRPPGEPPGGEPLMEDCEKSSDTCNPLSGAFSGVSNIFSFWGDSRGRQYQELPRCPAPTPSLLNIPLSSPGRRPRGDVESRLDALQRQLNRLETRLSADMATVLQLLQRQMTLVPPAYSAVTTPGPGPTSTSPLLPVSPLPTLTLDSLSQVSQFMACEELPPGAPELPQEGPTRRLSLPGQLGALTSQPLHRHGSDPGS

Compound	hERG current change (%, negative = inhibition) at 10uM [%]
Cc1csc(NC(=O)Cc2ccc(F)cc2)n1	21.1
CC(Sc1nncn1C)C(=O)Nc1ccc(S(N)(=O)=O)cc1 (centres unmarked)	15.7
COc1cccc(NC(=S)N/N=C2\CC(C)(C)Oc3ccc(O)cc32)c1	3.3
Cc1ccc(CNC(=O)c2ccc(C)s2)cc1	2.33
Cc1cccc(NC(=S)N2CCN(S(=O)(=O)c3ccc(F)cc3)CC2)c1	16.7
COc1ccc(CNS(=O)(=O)c2ccc(S(=O)(=O)NC3CC3)cc2)cc1	17.9
O=C(NCCCc1ccc(F)cc1)C1CCC(=O)N(CCN2CCOCC2)C1 (centres unmarked)	16.1
CCOc1ccc(S(=O)(=O)N2CCOCC2)cc1NC(=O)c1ccc(N2CCCC2=O)cc1	14.1
O=C(C1CC(c2ccc(F)cc2)=NO1)N1CCc2ccccc2C1 (centres unmarked)	1.97
Cn1c(NC(=O)c2cc(Br)ccc2Cl)cc(=O)n(C)c1=O	1.62
CCOC(=O)N1CCC(N2CCN(Cc3ccc(F)c(F)c3)C(CCO)C2)CC1 (centres unmarked)	-44.7
O=C(CSc1ncnc2sccc12)Nc1ccccc1F	-10.7
Cc1ccc(-n2c(SCC(=O)N/N=C/c3ccccc3C(=O)O)nnc2-c2ccccc2)cc1	8.57
CSc1ccc(/C=C/C(=O)Nc2ccccc2)cc1	5.54
C/C(=C\C(=O)c1ccccc1)Nc1ccc2c(c1)OCO2	-2.19
O=C(COc1ccc(Cl)cc1Cl)NCCC1=CCCCC1	-24.2
Cc1ccc(Nc2ccc(-n3ccnc3)nn2)cc1C	-15.3
Cc1ccccc1OCC(=O)OCC(=O)c1ccc(-c2ccccc2)cc1	11.3
COc1ccc(N2CCN(C(=O)CSc3nnc4nc(C)cc(C)n34)CC2)cc1	-26.1

Compound	hERG current change (%, negative = inhibition) at 10uM [%]
Cc1ccc(/C=C2\SC(=S)N(NS(=O)(=O)c3ccc(C)cc3)C2=O)cc1	-1.18
CN(C)c1nc(NN)nc(Nc2ccc(F)cc2)n1	12.9
CCn1cnc2sc(C(=O)N3CCN(Cc4ccc5c(c4)OCO5)CC3)c(C)c2c1=O	6.41
Cc1cc(C)cc(OC(=O)C23CCC(C)(C(=O)O2)C3(C)C)c1 (centres unmarked)	-12.2
CC(C)(C)c1ccc(C(=O)Nc2nnc(C3=COCCO3)o2)cc1	15.7
COc1ccc(N2CCN(C(=O)CCNS(=O)(=O)c3cc(Br)cnc3N)CC2)cc1	-11.9
Cc1nc2ccccc2n1CC(O)COC1CCCCC1 (centres unmarked)	-8.21
COc1ccc(-c2cc(C(=O)OC(C)C(=O)Nc3c(C)n(C)n(-c4ccccc4)c3=O)c3ccccc3n2)cc1 (centres unmarked)	-36.2
CC(O)COc1ccc(/C(=N/O)c2ccccc2)cc1 (centres unmarked)	15.8
CCN(C(=O)CSc1nnc(-c2ccco2)n1Cc1ccccc1)C1CCS(=O)(=O)C1 (centres unmarked)	-20.6
COC(=O)C(C)Sc1nc2c(cnn2-c2ccccc2)c(=O)[nH]1 (centres unmarked)	5.35
COC(=O)c1ccc(COC(=O)CNC(=O)CNC(=O)c2ccc(C)cc2)cc1	8.37
Cc1ccc(-n2nnnc2SCC(N)=O)c(C)c1	17.9
Cc1cc(C)n2nc(SCc3cc(=O)oc4cc(O)ccc34)nc2n1	-8.48
N#Cc1ccc(NC(=S)NC(=O)CCc2ccc(S(=O)(=O)N3CCOCC3)cc2)cc1	0.205
COc1cc(CNC2CCCCC2OC)cc(OC)c1OC (centres unmarked)	-7.47
O=C(Nc1c2c(nn1-c1ccc(F)cc1)CS(=O)C2)C12CC3CC(CC(C3)C1)C2 (centres unmarked)	16.7
O=C(Cn1cccc(C(F)(F)F)c1=O)c1ccc(Cl)cc1	-2.06
COc1ccccc1/C=C/C=N/N1CCN(c2ccccn2)CC1	-2.4

Compound	hERG current change (%, negative = inhibition) at 10uM [%]
Cc1ccccc1OCC(=O)N/N=C/C=C/c1ccccc1	13.4
CN(Cc1ccccc1)Cc1nc2c(c(=O)n(C)c(=O)n2C)n1Cc1ccccc1Cl	-5.6
Cc1cc(C)c(NC(=S)N(CCCN2CCN(C)CC2)Cc2cccs2)c(C)c1	-43.9
COc1ccc2c(c1)CC/C2=N\OC(=O)c1ccccc1C	28.2
Cc1ccc(OCCn2cnc3c2c(=O)n(C)c(=O)n3C)cc1	20
CCn1c(CC(=O)Nc2ccccc2C)nnc1SCC(=O)NC1CCCC1	9.3
Cc1ccc(C2=N/C(=C/c3cccs3)C(=O)N2Nc2ccccc2)cc1	3.7
CCOC(=O)c1ccc(NC(=O)C(=O)NCc2ccncc2)cc1	-8.45
CCN(CC)S(=O)(=O)c1ccc(C)c(NC(=O)COc2ccc3c(C)cc(=O)oc3c2)c1	12.2
COc1ccc(S(=O)(=O)N2CCn3c2nc2ccccc23)cc1	-9.34
COc1ccc(C)cc1S(=O)(=O)NC1CCCCCC1	6.25
O=C(Nc1ccccc1-c1ccccc1)c1cc(C(F)(F)F)cc(C(F)(F)F)c1	6.05
CC(C)Cn1cc(C(=O)N2CCC(C)CC2)c2c3ccccc3n(C)c2c1=O	-26.6
CCN(c1ccccc1)S(=O)(=O)c1cc(C(=O)OC2CCOC2=O)ccc1C (centres unmarked)	-17.5
CCN=C1SC(C(=O)Nc2ccc(OC)cc2)CC(=O)N1CC (centres unmarked)	9.22
Cc1cc(/C=N/n2cnnc2)c(C)n1-c1cccc(Cl)c1	-22.2
CCOC(=O)C1=NN(C(=O)COc2ccccc2)C(O)(c2ccc(Cl)cc2)C1 (centres unmarked)	2.44
O=C(COC(=O)/C=C/c1cccc(C(F)(F)F)c1)Nc1ccc(Cl)cn1	15.1
